# Source: the supplement of paper PMC8728848
# This is one part of the list.
# B1: TES70 (Toxocara canis), Q9XYV5 (protein)
# chain: MISVVLVAIALQISGSYAGACNSINDCGLFETCVNNMCVPDNMGCPMPCQAGQVCVPPNCVAAPAPQPVTTTTAAATTTTSARGRCNANAQCGAFEVCVNGMCQPNNAGCNPPCAANQVCVAPNCVPAPIPPPAQSTTTAPATTRAPPSCPPSWSPFSGHCYYVAVGSFLFNQASDWCTQTNSRPVWFDQSNVGTFGAELYFINVLAASRGVQTYWLGLNRQFGQWVWTNGSPLIFSNWRGSEPDGCCGGNVTCALVNYANPFGQWDDAGCGNIWRNPQGFICKKPLA
# Assays:
# Assay in all cases: glycan array binding signal (z-score within array); higher = stronger binding
# Conditions in all cases: glycan notation: IUPAC condensed, linker removed
# [1] = target: Neu5Ac(a2-3)Gal(b1-3)GlcNAc
# How it was run: (§1)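 The binding signal is a Z-score computed within each array and averaged over linkers. Arrays of the same protein sequence at different concentrations or buffers were also averaged together. Data originate from 3228 arrays in the Consortium for Functional Glycomics database, kept only where the protein sequence was available.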
# [2] = target: Neu5Ac(a2-3)Gal(b1-3)[Fuc(a1-4)]GlcNAc
# How it was run: as §1
# [3] = target: Neu5Ac(a2-3)Gal(b1-3)[Neu5Ac(a2-3)Gal(b1-4)]GlcNAc
# How it was run: as §1
# [4] = target: Neu5Ac(a2-3)Gal(b1-3)[Neu5Ac(a2-6)]GalNAc
# How it was run: as §1
# Neu5Ac(a2-3)Gal(b1-4)Glc = target: Neu5Ac(a2-3)Gal(b1-4)Glc
# How it was run: as §1
# [5] = target: Neu5Ac(a2-3)Gal(b1-4)GlcNAc
# How it was run: as §1
# [6] = target: Neu5Ac(a2-3)Gal(b1-4)GlcNAc(b1-3)Gal(b1-4)GlcNAc
# How it was run: as §1
# [7] = target: Neu5Ac(a2-3)Gal(b1-4)GlcNAc(b1-3)Gal(b1-4)GlcNAc(b1-3)Gal(b1-4)GlcNAc
# How it was run: as §1
# [8] = target: Neu5Ac(a2-3)Gal(b1-4)GlcNAc6S
# How it was run: as §1
# [9] = target: Neu5Ac(a2-3)Gal(b1-4)[Fuc(a1-3)]GlcNAc
# How it was run: as §1
# [10] = target: Neu5Ac(a2-3)Gal(b1-4)[Fuc(a1-3)]GlcNAc(b1-3)Gal
# How it was run: as §1
# [11] = target: Neu5Ac(a2-3)Gal(b1-4)[Fuc(a1-3)]GlcNAc(b1-3)Gal(b1-4)GlcNAc
# How it was run: as §1
# [12] = target: Neu5Ac(a2-3)Gal(b1-4)[Fuc(a1-3)]GlcNAc(b1-3)Gal(b1-4)[Fuc(a1-3)]GlcNAc(b1-3)Gal(b1-4)[Fuc(a1-3)]GlcNAc
# How it was run: as §1
# [13] = target: Neu5Ac(a2-3)Gal(b1-4)[Fuc(a1-3)]GlcNAc6S
# How it was run: as §1
# [14] = target: Neu5Ac(a2-3)Gal6S(b1-4)GlcNAc
# How it was run: as §1
# Neu5Ac(a2-3)GalNAc = target: Neu5Ac(a2-3)GalNAc
# How it was run: as §1
# [15] = target: Neu5Ac(a2-3)[GalNAc(b1-4)]Gal(b1-4)Glc
# How it was run: as §1
# [16] = target: Neu5Ac(a2-3)[GalNAc(b1-4)]Gal(b1-4)GlcNAc
# How it was run: as §1
# [17] = target: Neu5Ac(a2-3)[Neu5Ac(a2-6)]GalNAc
# How it was run: as §1
# Neu5Ac(a2-6)Gal = target: Neu5Ac(a2-6)Gal
# How it was run: as §1
# Neu5Ac(a2-6)Gal(b1-4)Glc = target: Neu5Ac(a2-6)Gal(b1-4)Glc
# How it was run: as §1
# [18] = target: Neu5Ac(a2-6)Gal(b1-4)GlcNAc
# How it was run: as §1
# [19] = target: Neu5Ac(a2-6)Gal(b1-4)GlcNAc(b1-3)Gal(b1-4)GlcNAc
# How it was run: as §1
# [20] = target: Neu5Ac(a2-6)Gal(b1-4)GlcNAc(b1-3)Gal(b1-4)[Fuc(a1-3)]GlcNAc(b1-3)Gal(b1-4)[Fuc(a1-3)]GlcNAc
# How it was run: as §1
# [21] = target: Neu5Ac(a2-6)Gal(b1-4)GlcNAc6S
# How it was run: as §1
# Neu5Ac(a2-6)GalNAc = target: Neu5Ac(a2-6)GalNAc
# How it was run: as §1
# Neu5Ac(a2-8)Neu5Ac = target: Neu5Ac(a2-8)Neu5Ac
# How it was run: as §1
# [22] = target: Neu5Ac(a2-8)Neu5Ac(a2-3)Gal(b1-4)Glc
# How it was run: as §1
# [23] = target: Neu5Ac(a2-8)Neu5Ac(a2-3)[GalNAc(b1-4)]Gal(b1-4)Glc
# How it was run: as §1
# [24] = target: Neu5Ac(a2-8)Neu5Ac(a2-8)Neu5Ac
# How it was run: as §1
# [25] = target: Neu5Ac(a2-8)Neu5Ac(a2-8)Neu5Ac(a2-3)Gal(b1-4)Glc
# How it was run: as §1
# [26] = target: Neu5Ac(a2-8)Neu5Ac(a2-8)Neu5Ac(a2-3)[GalNAc(b1-4)]Gal(b1-4)Glc
# How it was run: as §1
# Neu5Ac(b1-6)GalNAc = target: Neu5Ac(b1-6)GalNAc
# How it was run: as §1
# [27] = target: Neu5Ac(b2-6)Gal(b1-4)GlcNAc
# How it was run: as §1
# [28] = target: Neu5Ac9Ac(a2-6)Gal(b1-4)GlcNAc
# How it was run: as §1
# [29] = target: Neu5Gc(a2-3)Gal(b1-3)GlcNAc
# How it was run: as §1
# [30] = target: Neu5Gc(a2-3)Gal(b1-3)[Fuc(a1-4)]GlcNAc
# How it was run: as §1
# Neu5Gc(a2-3)Gal(b1-4)Glc = target: Neu5Gc(a2-3)Gal(b1-4)Glc
# How it was run: as §1
# [31] = target: Neu5Gc(a2-3)Gal(b1-4)GlcNAc
# How it was run: as §1
# [32] = target: Neu5Gc(a2-3)Gal(b1-4)[Fuc(a1-3)]GlcNAc
# How it was run: as §1
# [33] = target: Neu5Gc(a2-6)Gal(b1-4)GlcNAc
# How it was run: as §1
# Neu5Gc(a2-6)GalNAc = target: Neu5Gc(a2-6)GalNAc
# How it was run: as §1
binder,measurement,setting,value
B1,glycan array binding signal (z-score),[1],-0.172
same,glycan array binding signal (z-score),[2],-0.149
same,glycan array binding signal (z-score),[3],-0.196
same,glycan array binding signal (z-score),[4],-0.065
same,glycan array binding signal (z-score),Neu5Ac(a2-3)Gal(b1-4)Glc,-0.144
same,glycan array binding signal (z-score),[5],-0.159
same,glycan array binding signal (z-score),[6],-0.152
same,glycan array binding signal (z-score),[7],-0.085
same,glycan array binding signal (z-score),[8],-0.168
same,glycan array binding signal (z-score),[9],-0.164
same,glycan array binding signal (z-score),[10],-0.112
same,glycan array binding signal (z-score),[11],-0.048
same,glycan array binding signal (z-score),[12],-0.165
same,glycan array binding signal (z-score),[13],-0.164
same,glycan array binding signal (z-score),[14],-0.176
same,glycan array binding signal (z-score),Neu5Ac(a2-3)GalNAc,-0.169
same,glycan array binding signal (z-score),[15],-0.101
same,glycan array binding signal (z-score),[16],-0.126
same,glycan array binding signal (z-score),[17],-0.193
same,glycan array binding signal (z-score),Neu5Ac(a2-6)Gal,-0.128
same,glycan array binding signal (z-score),Neu5Ac(a2-6)Gal(b1-4)Glc,-0.159
same,glycan array binding signal (z-score),[18],6.41
same,glycan array binding signal (z-score),[19],-0.121
same,glycan array binding signal (z-score),[20],-0.131
same,glycan array binding signal (z-score),[21],-0.124
same,glycan array binding signal (z-score),Neu5Ac(a2-6)GalNAc,-0.092
same,glycan array binding signal (z-score),Neu5Ac(a2-8)Neu5Ac,-0.171
same,glycan array binding signal (z-score),[22],-0.14
same,glycan array binding signal (z-score),[23],-0.165
same,glycan array binding signal (z-score),[24],-0.175
same,glycan array binding signal (z-score),[25],-0.122
same,glycan array binding signal (z-score),[26],-0.145
same,glycan array binding signal (z-score),Neu5Ac(b1-6)GalNAc,-0.111
same,glycan array binding signal (z-score),[27],-0.153
same,glycan array binding signal (z-score),[28],-0.172
same,glycan array binding signal (z-score),[29],-0.104
same,glycan array binding signal (z-score),[30],-0.155
same,glycan array binding signal (z-score),Neu5Gc(a2-3)Gal(b1-4)Glc,-0.17
same,glycan array binding signal (z-score),[31],-0.144
same,glycan array binding signal (z-score),[32],-0.14
same,glycan array binding signal (z-score),[33],-0.15
same,glycan array binding signal (z-score),Neu5Gc(a2-6)GalNAc,-0.127
